Assay results published in PubChem BioAssay AID493208 (National Center for Advancing Translational Sciences (NCATS), 2011).
The whole screen tested about 44,000 compounds, of which about 340 (0.77%) were called active. Another 5% or so got no clear call; they are omitted. Calls come from the whole dose curve; as a rule, active = well fitted inhibition curve with a large enough effect; inconclusive = small, poorly fitted or top-dose-only effect; inactive = flat fitted curve, though single readings scatter. Some of the results follow.

Assay: Acumen qHTS Assay for Inhibitors of the mTORC1 Signaling Pathway in MEF (Tsc2-/-, p53-/-) Cells: Sytravon;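 note: plate controls were DMSO for no effect and rapamycin for full effect; nearly all actives have a fitted effect of over 50% in size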
Conditions: phospho-rpS6 immunofluorescence/PI, 24 h; series mostly up to 38.3 µM; activity change, negative = inhibition: at the top concentration
Outline: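 Compounds act on Tsc2-/-, p53-/- fibroblasts carrying an empty vector for 24 h before fixation and dual staining for phospho-S6 and DNA (propidium iodide). Values are percentages of cells above a rapamycin-defined pS6/PI threshold.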

Structure (SMILES)	activity change, negative = inhibition
COc1ccccc1C(=O)NC(=O)Nc1ccc(-n2nc(C(F)(F)F)cc2C(F)(F)F)cc1	inactive: -0.8%
CC1=C(C(=O)NCc2ccc(Cl)cc2)C2(CCCCCC2)OC1=O	inactive: 1.09%
COc1cccc(CSc2nc3n(n2)C(c2cccnc2)C(C(=O)Nc2ccccc2C)=C(C)N3)c1 (stereo not drawn)	inactive: -7.64%
COc1ccccc1C(=O)Nc1ccc(C(=O)OCc2cc(=O)n3ccsc3n2)cc1	inactive: 5.46%
Cc1nc2cc(C(=O)O)ccc2n1-c1ccc(C(C)C)cc1	inactive: 3.14%
CCOC(=O)c1sc(NC(=O)c2cc3nc(-c4ccc(Br)cc4)cc(C(F)(F)F)n3n2)c(C(=O)OCC)c1C	inactive: -2.57%
CCOC(=O)CCn1nc(C)c2c(C)n(-c3ccccc3)nc2c1=O	inactive: -16.6%
Cc1ccc(NC(=O)c2ccc(Br)cc2)c(C(=O)c2ccccc2)c1	inactive: 2.72%
CC(C)CC(=O)Nc1ccc(Cl)c(-c2nc3ccccc3[nH]2)c1	inactive: -14.5%
Cc1nc2nc(SCC(=O)NCc3ccccc3)nn2c(C)c1Cc1ccccc1	inactive: -29.1%
COc1ccc(OC)c(CNC(=O)CN2C(=O)CCn3nc(-c4cn(C)c5ccccc45)cc32)c1	inactive: 0.412%
N#Cc1ccc(NS(=O)(=O)c2ccc(-c3cnc(C4CC4)o3)cc2)cc1	inactive: 12.2%
CCc1cccc(NC(=O)CN2C=NS(=O)(=O)c3ccccc32)c1	inactive: 2.29%
CCOC(=O)c1ccccc1NC(=O)N(Cc1ccco1)C1CCN(C(C)=O)CC1	inactive: -1.25%
CNC(=O)c1ccc(Nc2nnc(-c3ccc(C)c(S(=O)(=O)N4CCOCC4)c3)c3ccccc23)cc1	inactive: 18%
CCOc1nc(NC(=O)NS(=O)(=O)Oc2ccccc2Cl)nc(-c2ccccc2)n1	inactive: 1.08%
Cc1ccc(C)n1-c1nnc(N2CCCC(C(=O)NCc3ccccc3)C2)s1 (stereo not drawn)	inactive: -11.7%
COc1cc2nc(NCC(C)c3ccccc3)n3nc(-c4ccccc4)nc3c2cc1OC (stereo not drawn)	inactive: -2.55%
Cc1ccc(N(Cc2cccs2)C(=O)COc2ccccc2[N+](=O)[O-])cc1	inactive: -2.76%
O=C(c1ccco1)n1nc(-c2ccccc2)nc1NCc1ccccc1Cl	inactive: -2.88%
CC(=O)Nc1ccc(S(=O)(=O)NCCc2csc3nc(-c4cccc(C)c4)nn23)cc1	inactive: 0.0882%
Cc1cccc(-c2nc(Cn3c(SCc4cc(C)ccc4C)nc4ccncc43)c(C)o2)c1	inactive: -0.562%
CCc1ccc(NC(=O)CSc2nc3ccsc3c(=O)n2C(C)CC)cc1 (stereo not drawn)	inactive: -1.76%
O=C(NCc1ccccc1)C(=O)NCC(c1cccnc1)N1CCN(c2ccccc2)CC1 (stereo not drawn)	inactive: 3.23%

Structure (SMILES)	activity change, negative = inhibition
Cc1ccc(-c2nn3c(-c4ccc(C)cc4)nnc3c3ccccc23)cc1	inactive: 1.9%
COc1ccccc1-n1c(SCC(=O)Nc2ccc(C)cc2)nc(O)cc1=O	inactive: -6.62%
O=C(CCCn1c2ccccc2c(=O)c2ccccc21)Nc1ccc(F)cc1Cl	inactive: -6.47%
COc1cc(CN(C(=O)c2oc3ccccc3c2C)C2CCS(=O)(=O)C2)cc(OC)c1OC (stereo not drawn)	inactive: 6.22%
COc1cccc(NC(=O)c2cc3c(=O)n(Cc4cccnc4)ccc3nc2C)c1	inactive: -8.08%
COc1ccccc1CNC(=O)CCC1N=C2c3ccccc3N=C(SCC(=O)NCCc3ccc(OC)c(OC)c3)N2C1=O (stereo not drawn)	inactive: 1.3%
Cc1ccc(-c2nc(S(=O)(=O)c3ccc(C)cc3)c(SCC(=O)NC3CCCCC3)o2)cc1	inactive: 8.26%
COc1cc(NS(=O)(=O)c2ccc3oc(=O)c4ncn(C)c4c3c2)cc(OC)c1	inactive: -2.51%
COc1ccc(-c2noc(-c3ccc(NC(C)c4ccccc4)c([N+](=O)[O-])c3)n2)cc1OC (stereo not drawn)	inactive: 6.33%
CCc1ccc(-c2cc(C)no2)cc1S(=O)(=O)Nc1ccc(Cl)cc1	inactive: -18.2%
CN(C)c1ccc(NC(=O)CSC2=Nc3ccccc3C3=NC(CC(=O)NCc4ccccc4)C(=O)N23)cc1 (stereo not drawn)	inactive: 0.29%
CCOc1ccccc1CN(CCc1ccc2c(c1)OCO2)Cc1cccc(OC)c1OC	inactive: -27.5%
CCOC(=O)c1c(C)[nH]c(CCC(=O)NCc2ccccc2C)c1C	inactive: 3.21%
COc1cc(NC(=O)C(CCS(C)(=O)=O)N2Cc3ccccc3C2=O)cc(OC)c1OC (stereo not drawn)	inactive: -0.853%
COc1cccc(C2CC(=O)N3CN(C4CCCCC4)CSC3=C2C#N)c1 (stereo not drawn)	inactive: -4.82%
CC1CN(C(=O)N2CCC(C(=O)NC3CCCCCC3)CC2)c2ccccc2O1 (stereo not drawn)	inactive: -3.39%
CCCN1C(=O)c2[nH]nc(-c3ccc(F)cc3)c2C1c1ccccn1 (stereo not drawn)	inactive: -1.03%
Cc1ccc(N2CC(c3nnc(NC(=O)c4ccco4)s3)CC2=O)cc1C (stereo not drawn)	inactive: 0%
O=C(NC1CCCC1)c1ccc(CSc2nc3ccncc3n2Cc2ccc(F)cc2)cc1	inactive: -11.6%
COc1ccc(-n2cc(C(=O)NC(C)c3ccccc3)c3ccccc3c2=O)cc1 (stereo not drawn)	inactive: 7.13%
Cc1ccc(NC(=O)Cn2cc(S(=O)(=O)N3CCCC3)c(S(=O)(=O)N3CCCC3)c2)cc1C	inactive: 1.95%
CCOc1ccc(NC(=O)c2ccc(-c3cccc(Cl)c3C)o2)cc1	inactive: 12.3%
O=c1c2cc3c(nc2ncn1Cc1ccccc1F)CCCC3	inactive: -0.578%
CCOC(=O)c1cnc2c(ccc3ccccc32)c1Nc1ccc(OC)c(OC)c1	inactive: -12.7%
